According to PMC4336329 (PLoS ONE, 2015):
In all, about 310,000 compounds went through this assay and about 14,000 (4.5%) showed an effect of 50% or more. The effect is printed as a negative number. Some of the results follow.

Molecular target: human ether-à-go-go-related gene (hERG) potassium channel (human, UniProt Q12809)
Assay: primary screen, population patch clamp on CHO cells stably expressing hERG
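Also: peak tail current of the secondary pulse compared with the same well before compound.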

Sequence of human ether-à-go-go-related gene (hERG) potassium channel (Q12809 whole entry, looked up): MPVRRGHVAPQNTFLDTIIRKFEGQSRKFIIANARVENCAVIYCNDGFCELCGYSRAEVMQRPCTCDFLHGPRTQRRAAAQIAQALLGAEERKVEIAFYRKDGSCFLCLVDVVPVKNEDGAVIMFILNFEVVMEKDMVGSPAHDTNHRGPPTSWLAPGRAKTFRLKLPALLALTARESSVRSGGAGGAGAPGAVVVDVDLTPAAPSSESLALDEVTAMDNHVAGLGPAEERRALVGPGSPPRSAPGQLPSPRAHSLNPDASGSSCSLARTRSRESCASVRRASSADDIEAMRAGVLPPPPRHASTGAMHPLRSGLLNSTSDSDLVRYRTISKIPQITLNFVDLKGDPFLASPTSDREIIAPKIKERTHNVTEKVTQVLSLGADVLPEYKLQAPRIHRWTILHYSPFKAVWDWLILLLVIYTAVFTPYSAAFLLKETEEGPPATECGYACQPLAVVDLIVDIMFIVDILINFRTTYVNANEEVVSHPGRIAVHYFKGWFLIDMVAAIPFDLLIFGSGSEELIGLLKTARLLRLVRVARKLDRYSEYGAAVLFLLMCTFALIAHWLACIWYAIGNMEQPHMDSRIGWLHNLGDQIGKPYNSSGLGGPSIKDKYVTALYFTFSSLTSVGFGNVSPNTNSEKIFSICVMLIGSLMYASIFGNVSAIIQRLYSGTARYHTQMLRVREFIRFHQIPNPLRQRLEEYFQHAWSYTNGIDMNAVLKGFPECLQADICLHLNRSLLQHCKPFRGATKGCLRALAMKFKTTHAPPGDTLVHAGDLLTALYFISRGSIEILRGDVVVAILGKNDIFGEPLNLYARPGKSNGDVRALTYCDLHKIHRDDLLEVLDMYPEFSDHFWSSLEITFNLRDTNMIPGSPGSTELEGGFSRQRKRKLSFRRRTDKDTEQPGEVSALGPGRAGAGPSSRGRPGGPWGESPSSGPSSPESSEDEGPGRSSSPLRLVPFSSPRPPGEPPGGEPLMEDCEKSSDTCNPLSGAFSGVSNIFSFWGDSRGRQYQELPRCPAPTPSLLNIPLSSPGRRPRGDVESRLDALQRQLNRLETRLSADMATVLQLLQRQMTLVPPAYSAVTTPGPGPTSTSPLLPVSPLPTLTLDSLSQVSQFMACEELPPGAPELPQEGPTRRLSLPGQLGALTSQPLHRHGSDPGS

Structure (SMILES)	hERG current change (%, negative = inhibition) at 10uM [%]
C/C(=N\NC(=O)Cc1ccc(Cl)cc1)c1cccc(NC(=O)c2cccnc2)c1	7.49
Cc1ccc(S(=O)(=O)N2CCCSCC2)cc1	1.89
Cc1cccc(N2CCN(CCNC(=O)c3cc4c(s3)CS(=O)(=O)C4)CC2)c1C	-45.2
OCC(Cl)CCl (stereo not shown)	-3.16
CCOc1ccc(CN(C)CC(=O)NNC(=O)c2ccc(Cl)cc2)cc1OC	-60.3
N#CC(C(=O)NC1CC1)c1nc2ccccc2nc1N1CCN(C/C=C/c2ccccc2)CC1 (stereo not shown)	-58.9
O=C(OCc1c(Cl)cccc1Cl)c1cccnc1Cl	0.492
CCn1c(SCc2ccccc2F)nnc1-c1ccncc1	-6.25
Cc1ccc(-c2nnn3c2nc(NC(C)C)c2ccccc23)cc1	7.17
CN1CCN(C(=O)c2cc(Cl)ccc2NC(=O)c2ccc(Cl)cc2Cl)CC1	-7.99
CCN(CC)C(=O)Cn1cc(S(=O)(=O)CC(=O)Nc2ccccc2F)c2ccccc21	-17.5
Cc1ccc(SCc2cc(=O)[nH]c(Nc3nc(C)c4cccc(C)c4n3)n2)cc1	-26.2
Nn1c(SCCOc2ccccc2)nnc1-c1cccnc1	12.9
COc1ccc(S(=O)(=O)N2CCCCC2)cc1NC(=O)CCc1nc2ccccc2c(=O)[nH]1	0.795
COc1ccc(C(=O)Nn2cnnc2)cc1OC	14.6
COC(=O)/C=C/c1ccc2c(c1)S(=O)(=O)N(Cc1ccc(OC)cc1)[C@H]2CC(=O)OC	-24.9
CC1CCCN(C(=O)COc2ccc(-c3ccccc3)cc2)C1 (stereo not shown)	-35.5
CCOC(=O)C1=CC(=C2C(=O)N(CC)C(=S)N(CC)C2=O)c2ccccc2O1	23
COCCNC(=O)CN(C(=O)CCC(=O)Nc1cc(C)on1)c1ccccc1C	5.72
CCC(=O)N1c2ccccc2C(N(C(C)=O)c2ccccc2)CC1C (stereo not shown)	3.24
CCOc1cc(/C=C2/NC(=S)NC2=O)ccc1OCc1ccc([N+](=O)[O-])cc1	4.97
O=C(CCc1ccccn1)N1CCCC(Nc2cccc(F)c2)C1 (stereo not shown)	-10.3

Structure (SMILES)	hERG current change (%, negative = inhibition) at 10uM [%]
O=C(CSc1n[nH]c(=O)[nH]c1=O)c1ccc([N+](=O)[O-])cc1	-16.7
CC(C)(O)C#Cc1ccc(C(=O)NCc2ccccc2)s1	-12.1
CC1(C)Cc2nc(Cl)c(C(=O)O)cc2CO1	16.6
CCOC(=O)C1CCN(CC(=O)Nc2ccc(S(=O)(=O)N3CCC(C)CC3)cc2)CC1	-16.6
Cc1cc(C)cc(C(=O)N2CCN=C2SCc2ccc([N+](=O)[O-])cc2)c1	-23.5
O=c1[nH]c2cc3c(cc2cc1CN(CCc1ccccc1)Cc1nnnn1CC1CCCO1)OCO3 (stereo not shown)	-4.91
COc1ccc(NC(=O)C2=CC(c3ccc(C)cc3)=NS(=O)(=O)N2C)cc1	-5.29
COc1ccc(/C=N/NC(=O)c2ccncc2)cc1CN1CCN(c2ccc(F)cc2)CC1	-77
CCSc1nnc(NC(=O)C(Cc2ccccc2)n2cccc2)s1 (stereo not shown)	1.31
Cc1ccc(OCCCC(=O)Nc2ccc(Cl)c(S(=O)(=O)N3CCOCC3)c2)cc1	-14.4
COCc1nnc(NC(=O)CCS(=O)(=O)c2ccccc2)s1	22.9
COCCCNC(=S)NCCc1ccc(F)cc1	13.7
Cc1ccc(CNC(=O)Cc2ccc(Br)cc2)cc1	20.8
CCCNC(=O)C1CCN(S(=O)(=O)c2ccc3c(c2)OCCO3)CC1	-4.3
Cc1ccc(S(=O)(=O)CCC(=O)Nc2ccc(Br)cc2)cc1	-7.37
CCCSc1nnc(-c2cnn(-c3ccccc3)c2-n2cccc2)n1C	-33.7
CCC(C)NCCCCOc1ccc(Br)cc1.O=C(O)C(=O)O (stereo not shown)	-32.6
Cc1ccc(-n2[nH]c(C)c(C=Nc3ccc(S(=O)(=O)Nc4nccs4)cc3)c2=O)cc1C	4.5
NC(=S)Nc1cccc(O)c1	13.2
C/C(=N\NC(=O)c1cccc2ccccc12)c1cccs1	6.58
COc1cccc(CNC(=O)c2ccc(CS(=O)(=O)Cc3ccccc3C)o2)c1	-8.18
CCc1ccc2c(CN3CCOCC3)cc(=O)oc2c1	-31.7

Structure (SMILES)	hERG current change (%, negative = inhibition) at 10uM [%]
COc1ccccc1-c1cc(C(=O)N2CCCCC2)no1	-1.75
COc1ccc(Oc2nc3c(c(=O)n(C)c(=O)n3C)n2C)cc1	17.7
C[C@]12C(=O)N(c3ccc(Cl)cc3)C(=O)N1[C@@H]1c3ccccc3OC[C@@H]1[C@H]2c1ccccc1	8.19
Cc1oc(/N=C/c2ccc(O)cc2O)c(C#N)c1C	19.8
COc1ccc(CNC(=O)COC(=O)c2ccc(OCc3c(C)noc3C)cc2)cc1OC	13.8
CCc1ccc(-c2csc(-c3c[nH]c4ccccc34)n2)cc1	3.01
CCCCOc1ccc(C(=O)NCC(=O)NC2CCC(C)CC2)cc1 (stereo not shown)	-0.305
Cc1c(Cl)cccc1NC(=O)CSCc1cc(=O)[nH][nH]1	-4.12
COc1ccc(NC(=O)CN(C)C(=O)CSCC(=O)Nc2ccc(C)cc2)cc1	-0.753
CN(CCc1ccccn1)C(=O)CCC1CCCN(C(=O)c2c3c(nn2C)CCCC3)C1 (stereo not shown)	28.5
CCN(C(=O)Cn1c(=O)oc2cc(S(=O)(=O)N3CCOCC3)ccc21)c1ccccc1	-5.23
O=C1CN(C(=O)COC(=O)c2cc(S(=O)(=O)N3CCOCC3)ccc2Cl)c2ccccc2N1	-32.6
Cc1ccccc1NC(=O)CSc1nnc(Cc2ccccc2)c(=O)n1N	3.16
Cc1c(NC(=O)CSCc2ccccc2)cccc1C(=O)O	18
COc1ccc(N(C(C)C(=O)N/N=C/c2ccc(OCC(C)C)cc2)S(C)(=O)=O)cc1 (stereo not shown)	-9.12
CCCCn1c(N)c(N(CC(C)C)C(=O)c2ccc(-c3ccc(Cl)cc3)o2)c(=O)[nH]c1=O	1.07
CCCCN(C)S(=O)(=O)c1c(C)[nH]c(=O)[nH]c1=O	2.53
O=C(NC(=S)Nc1ccccc1[N+](=O)[O-])c1cncc(Br)c1	16.3
O=C(CCC(=O)NNC(=O)c1ccc(Cl)cc1Cl)NCc1ccccc1	-8.65
C#CCNC(=O)C1=C[C@@H](c2ccc(Br)cc2)C[C@@H](OCCCCO)O1	-18.9
COC(=O)c1[nH]c2cc(OC)c(OC)cc2c1NC(=O)c1cccc(OC)c1	-0.275
COC(=O)Cn1c(CN2CCOCC2)nc2c1c(=O)n(C)c(=O)n2C	9.63

Structure (SMILES)	hERG current change (%, negative = inhibition) at 10uM [%]
Cn1ncc(Cl)c1C(=O)Nc1nnc(C2CC2)s1	12
CC(C)(C)c1ccc(C(=O)NNC(=S)NCC2CCCO2)cc1 (stereo not shown)	14.4
O=C(CN1CCOCC1)Nc1nc2ccc(F)cc2s1	-8.56
O=C(CSc1ccc(Cl)cc1)Nc1cc(-c2nc3ncccc3o2)ccc1Cl	-7.92
CN(Cc1ccccc1)C(=O)COC(=O)/C=C/c1ccco1	10.2
CCOC(=O)c1cc(S(=O)(=O)N2CCN(c3ccccc3OC)CC2)cn1C	-1.22
CCCn1c2c(c(O)c(C(=O)Nc3ccccc3)c1=O)CCCC2	16.7
CC(C)CNC(=S)Nc1ccc(S(N)(=O)=O)cc1	3.77
CN(CC(=O)Nc1ccc(F)c(F)c1F)C(=O)CC1CCCCC1	-6.8
CC(NCc1cc(Br)ccc1OCC(N)=O)C12CC3CC(CC(C3)C1)C2.Cl (stereo not shown)	-55.8
O=C(/C=C/c1ccc(Cl)cc1)NCc1ccncc1	-2.14
Cc1cc(O)c(C(C[N+](=O)[O-])c2ccc(Cl)cc2)c(=O)o1 (stereo not shown)	-12.1
O=c1cc(-c2ccccc2)nc2nc(-c3ccccc3)[nH]n12	14.7
CCOc1ccc(N2CC(=O)SC2=S)cc1	-11.8
COc1ccc(C2C(C(C)=O)=C(O)C(=O)N2CCc2c[nH]c3ccccc23)cc1OC (stereo not shown)	21.1
COc1ccc(-c2csc3ncnc(N4CCN(c5cccc(C)c5C)CC4)c23)cc1	15.5
COc1ccc(N2CCN(C(=O)NC(=O)c3ccc(Cl)cc3)CC2)cc1	-4.38
NNC(=O)C(=O)Nc1ccc(Cl)c(Cl)c1	12
CCCCN(C(=O)c1ccc(N2CCCC2=O)cc1)c1c(N)n(CCCC)c(=O)[nH]c1=O	2.38
CCn1c(CNC(=O)c2ccccc2Br)nnc1SCC(=O)NC1=NCCS1	27.9
CCOc1cc(S(=O)(=O)N2CCN(CC)CC2)ccc1Cl	-6.08
CN1/C(=C/C2CC(=O)N(c3ccc([N+](=O)[O-])cc3)C2=O)C(C)(C)c2ccccc21 (stereo not shown)	-23.2
